Reference: PMC6919601, “Identification of Plasmodium dipeptidyl aminopeptidase allosteric inhibitors by high throughput screening” (PLoS ONE, 2019)
In all, about 110,000 compounds went through this assay and about 230 (0.21%) showed an effect of 50% or more. Some of the results follow.

Biological target: DPAP1 (Plasmodium falciparum, UniProt Q8IIJ9)
Assay: primary screen, percent inhibition; read by cleavage of a fluorogenic dipeptide substrate; higher = more effect of the substance
Parameters: species or system P. falciparum D10 trophozoite lysates; single well
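Further: 30 min substrate incubation versus DMSO and 10 µM JCP410 controls.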

DPAP1, sequence (Q8IIJ9 whole entry, looked up): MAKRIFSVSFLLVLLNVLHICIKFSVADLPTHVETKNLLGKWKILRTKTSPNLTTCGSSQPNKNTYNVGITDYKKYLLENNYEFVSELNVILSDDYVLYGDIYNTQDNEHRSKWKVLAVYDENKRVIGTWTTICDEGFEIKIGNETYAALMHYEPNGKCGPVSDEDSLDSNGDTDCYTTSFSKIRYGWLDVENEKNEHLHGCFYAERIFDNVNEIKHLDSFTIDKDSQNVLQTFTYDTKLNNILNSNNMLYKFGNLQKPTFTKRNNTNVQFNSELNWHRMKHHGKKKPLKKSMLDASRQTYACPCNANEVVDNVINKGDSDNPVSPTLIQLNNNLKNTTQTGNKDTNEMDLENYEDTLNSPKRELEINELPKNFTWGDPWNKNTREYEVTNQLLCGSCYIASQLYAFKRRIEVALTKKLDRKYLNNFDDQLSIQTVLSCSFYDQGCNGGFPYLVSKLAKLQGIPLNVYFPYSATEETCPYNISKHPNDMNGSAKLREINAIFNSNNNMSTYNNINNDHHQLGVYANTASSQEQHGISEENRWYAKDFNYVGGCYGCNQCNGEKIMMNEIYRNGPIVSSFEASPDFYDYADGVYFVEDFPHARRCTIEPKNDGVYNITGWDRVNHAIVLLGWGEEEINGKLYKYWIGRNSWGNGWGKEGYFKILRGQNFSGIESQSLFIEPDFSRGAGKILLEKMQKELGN

Compound | % Inhibition @ 10 uM [%]
CCC(Sc1ccc2ccccc2n1)C(=O)O (centres unmarked) | 4.74
CCc1c(CO)csc1C | 2.3
CN(c1cccc(NS(=O)(=O)c2ccc(F)cc2)c1)S(C)(=O)=O | -1.02
CC(=O)OC(C)(C)C#CCN1CCN(C)CC1 | 4.61
CC(C)NC(=O)c1ccc(-c2ccccc2)s1 | 4.4
Cc1ccc2nc(O)c3cc(C(=O)N4CCC(C)CC4)sc3c2c1 | 1.08
Oc1cccc(CN2CCN(c3ccccn3)CC2)c1 | -1.07
O=C(CN1C(=O)C2C3c4ccccc4C(c4ccccc43)C2C1=O)Nc1ccccc1O (centres unmarked) | 6.24
Nc1ccccc1Nc1nc(N2CCCCC2)nc(N(c2ccccc2)c2ccccc2)n1 | 0.00178
COc1ccc(N2C(=O)c3ccccc3C2=O)c([N+](=O)[O-])c1 | 0.00178
O=C1O[C@@H]2C[C@H]3C[C@@H]2[C@@H]1[C@H]3C(=O)N1CCN(C(=O)c2ccco2)CC1 | 3.81
O=S(=O)(NCCc1csc(-c2cccnc2)n1)c1ccc(Oc2ccccc2)cc1 | -0.72
CCc1ccc(OCCN2CCOCC2)cc1 | -1.96
S=C(Cc1ccc(CC(=S)N2CCOCC2)cc1)N1CCOCC1 | 6.31
CC(=O)N1c2ccccc2C(c2ccccc2)(c2ccccc2)OC1C (centres unmarked) | 2.36
O=C1c2cccnc2C(=O)N1c1ccccc1-c1ccccc1 | -2.29
COc1cc(OC)c(CN2CCCCCCC2)cc1Br | 3.1
Cc1ccccc1OCC(=O)Nc1c(C)n[nH]c1C | -1.88
CN1C(C(=O)N2CCN(C(=O)c3ccco3)CC2)=CC(c2ccco2)=NS1(=O)=O | 0.655
CCCN(CCC)C(=O)C(Cc1ccccc1)N1C(=O)C2C3C=CC(C3)C2C1=O (centres unmarked) | 1.12
CCOc1ccc(CCNC(=O)c2cnc(SC)nc2CC)cc1 | 12.7
CC(C)NC(=O)c1cc2n(n1)C(C(F)(F)F)CC(c1ccc(Br)cc1)N2 (centres unmarked) | -4.69
O=[N+]([O-])c1cc2c(cc1CN1CCC(N3CCCCC3)CC1)OCO2 | -7.18
CS(=O)(=O)N(CC(=O)NCc1ccccc1Cl)c1cc(C(F)(F)F)ccc1Cl | 4.59
CCOC(=O)c1cnc2c(C#N)c(C)nn2c1-c1ccccc1 | -2.14

Compound | % Inhibition @ 10 uM [%]
CC1=NN(c2ccccc2)C(=O)/C1=C1/C(=O)Nc2ccc(Cl)cc21 | 2.33
CCOC(=O)C1=C(C)N=c2s/c(=C\c3ccc(C)o3)c(=O)n2C1c1ccc2c(c1)OCO2 (centres unmarked) | 9.09
COc1ccccc1C(=O)Nc1cccc(-c2nc3ccccc3o2)c1 | -8.11
Cc1cccc2c1-c1sc(C(=O)N3CCc4ccccc4C3)cc1CO2 | -3.08
O=C(CCc1ccccc1)NC1(C(F)(F)F)C(=O)Nc2c1c(=O)[nH]c(=O)n2Cc1ccccc1 (centres unmarked) | 2.38
Cc1cccc(Cn2c(CCNC(=O)c3ccco3)nc3ccccc32)c1 | 0.366
Cc1ccc(-c2cn3nc(N4CCC(C(=O)N5CCN(c6ncccn6)CC5)CC4)sc3n2)cc1 | 1.46
CC(=O)Cc1cccc2cccc(C(=O)O)c12 | 1.43
CCc1ccc(CNC(=O)c2ccc(CS(=O)(=O)Cc3ccc(C)cc3)o2)cc1 | 6.86
COc1ccc2c(c1)c(C(=O)N1CCCC1)c(C)n2Cc1ccccc1 | -6.86
Cc1ccc(C)c(NC(=O)c2cc3ccccc3o2)c1 | 4.32
O=C(c1ccc2c(c1)OCO2)N1CCN(Cc2ccccc2)CC1 | -2.85
Cc1ccc(-c2nc(CS(=O)(=O)CC(=O)NCc3ccccn3)c(C)o2)cc1 | 1.55
COCC(=O)Nc1ccc2ccccc2c1 | 0.634
Cn1c(CNc2ccccc2)nc2ccccc21 | 3.9
CCOC(=O)NC1(C(F)(F)F)C(=O)NC(C)=C1C#N (centres unmarked) | -1.94
Cc1cc(Cl)ccc1OCC(=O)Nn1c(C)ccc1C | 0.9
O=C(CSc1nc2ccccc2s1)NCCCN1CCOCC1 | 14.6
COc1ccc(OC)c(C2C3=C(O)CCCC3=NC(C)=C2C(=O)Nc2ccc(F)cc2F)c1 (centres unmarked) | -0.413
COc1ccc(CN2CCCN(C)CC2)cc1Br | 3
Cc1ccc(C(=O)N/C(=C\c2ccc(F)cc2)C(=O)NCc2ccncc2)cc1 | 1.52
C=CCNC(=O)C1CCC(CNc2nc(S)nc3ccccc23)CC1 (centres unmarked) | 17
COc1ccccc1CNC(=O)CCCn1sc2ccccc2c1=O | 3.24
CCN(CC)CCNC(=O)CS(=O)(=O)Cc1nc(-c2ccc(OC)cc2)oc1C | -3.7
C=CCn1c(COc2ccc(Cl)c3cccnc23)nnc1SCC(N)=O | -3.33
